Measurements as given in patent US6080755A, “1,9-diazabicyclo[4.3.0]nona-3,8-diene derivatives” (Wyeth Lederle Japan, Ltd., priority 1995, dated 2000).
The name of at least one read-out is uncertain.

These compounds were tested on Isolated Rat Hearts (assay: Cardioprotective Effect in Ischemia/Reperfusion Model of Isolated Rat Hearts). Conditions: relative to propranolol = 100%; 10^-5 mol of test compound in 0.04% DMSO; 25 min global ischemia, reperfusion for 30 minutes.
Parameters: species or system Male Sprague-Dawley rats
Protocol: Cardioprotective Effect in Ischemia/Reperfusion Model of Isolated Rat Hearts:
Male Sprague-Dawley rats (300-500 g) were used. The rats were anesthetized using 40 mg/kg of sodium pentobarbital (i.p.) after treating with heparin (i.v. 1000 U/kg). The hearts were excised and moved quickly to a Langendorlf apparatus where they were perfused with Krebs-Henseleit bicarbonate buffer (118 mM of NaCl; 4.7 mM of KCl; 2.55 mM of CaCl2; 1.18 mM of KH2 PO4; 24.88 mM of NaHCO3; 11.1 mM of glucose) bubbled with mixture gas of 95% oxygen and 5% carbon dioxide at a constant perfusion pressure (75 mmHg). The parameters of cardiac function were determined as follows.
The physiological saline-filled latex balloon was inserted into the left ventricle and connected to a pressure transducer for measurement of left ventricular pressure (LVP). The volume of the balloon was adjusted to produce an LV end-diastolic pressure at 5-10 mmHg. The heart rate was determined with a tachometer and coronary flow was determined with an extra-corporeal electromagnetic flow tube.
For the equilibration, the hearts were perfused for initial 15-20 minutes. Then, treatment with the test compounds was begun 15 minutes before the onset of ischemia. Global ischemia was initiated by shutting off the perfusate flow and this was maintained for 25 minutes. The hearts were submerged in 37° C. buffer during ischemia. Reperfusion was then begun with the test compounds and the hearts were allowed to recover for 30 minutes. The cardiac function was measured before the treatment of the test compounds, before ischemia and after reperfusion. The hearts were treated with 10^-5 mol of the test compounds dissolved in 0.04% of dimethylsulfoxide (DMSO), in comparison with the vehicle, i.e., 0.04% of DMSO alone, in the perfusate.
The cardioprotective effects of the test compounds were evaluated on the basis of the extent of recovery of LVP after reperfusion for 30 minutes.

Structure (SMILES)	LVDP(%) as compared with that for propranolol, when the recovery by propranolol is assumed to be 100% [%]
CCCOC(=O)C1=NN2CC(C)=C(C)CC2(C(=O)OCCC)C1O (single isomer, unassigned; (-)) [Compound No. 126, (-)-3,4-Dimethyl-6,8-dipropoxycarbonyl-7-hydroxy-1,9-diazabicyclo[4.3.0]nona-3,8-diene]	97.5
CC1=C(C)CC2(CO)C(O)C(CO)=NN2C1 (stereo not shown) [Compound No. 103]	20.2
CCOC(=O)C12CC(C)=C(C)CN1N=C(CO)C2O (stereo not shown) [Compound No. 104, 3,4-Dimethyl-6-ethoxycarbonyl-7-hydroxy-8-hydroxymethy-1,9-diazabicyclo[4.3.0]nona-3,8-diene]	65.8
CCOC(=O)C1=NN2CC(C)=C(C)CC2(CO)C1O (stereo not shown) [Compound No. 105]	13.3
COC(=O)C12C(O)C(CO)=NN1C(c1ccccc1)C=CC2c1ccccc1 (stereo not shown) [Compound No. 115]	41.8
CCCOC(=O)C1=NN2CC(C)=C(C)CC2(C(=O)OCCC)C1O (stereo not shown) [Compound No. 125]	47.2
COC(=O)C12C(OC(C)=O)C(C(=O)O)=NN1C(c1ccccc1)C=CC2c1ccccc1 (stereo not shown) [Compound No. 132]	27.9
COC(=O)C12C(O)C(C(=O)OCCN(C)C)=NN1C(c1ccccc1)C=CC2c1ccccc1 (stereo not shown) [Compound No. 133]	27.8
CCCOC(=O)C12CC(C)=C(C)CN1N=C(C#N)C2O (stereo not shown) [Compound No. 164, 8-Cyano-3,4-dimethyl-7-hydroxy-6-propoxycarbonyl-1,9-diazabicyclo[4.3.0]nona-3,8-diene]	50.6
COC(=O)C12C(O)C(C(C)=O)=NN1C(c1ccccc1)C=CC2c1ccccc1 (stereo not shown) [Compound No. 166]	42.8
COC(=O)C12C(O)C(C#N)=NN1C(c1ccccc1)C=CC2c1ccccc1 (stereo not shown) [Compound No. 169]	39.0
COC(=O)C12C(O)C(C(=O)Cc3ccccn3)=NN1C(c1ccccc1)C=CC2c1ccccc1 (stereo not shown) [Compound No. 171, 2,5-Diphenyl-7-hydroxy-6-methoxycarbonyl-8-(2-pyridyl)acetyl-1,9-diazabicyclo[4.3.0]nona-3,8-diene]	102.4
COC(=O)C12C(O)C(C(=O)NC(=N)N)=NN1C(c1ccccc1)C=CC2c1ccccc1 (stereo not shown) [Compound No. 174, 2,5-Diphenyl-8-guanidinocarbonyl-7-hydroxy-6-methoxycarbonyl-1,9-diazabicyclo[4.3.0]nona-3,8-diene]	53.4
COC(=O)C12C(O)C(C3=NC(C)(C)CO3)=NN1C(c1ccccc1)C=CC2c1ccccc1 (stereo not shown) [Compound No. 185]	38.4
COC(=O)[C@@H]1COC(C2=NN3C(c4ccccc4)C=CC(c4ccccc4)C3(C(=O)OC)C2O)=N1 (stereo partly drawn) [Compound No. 186, 8-((4S)-4,5-dihydro-4-methoxycarbonyl-2-oxazolyl)-2,5-diphenyl-7-hydroxy-6-methoxycarbonyl-1,9-diazabicyclo[4.3.0]nona-3,8-diene]	68.5
COC(=O)C12C(O)C(c3ncon3)=NN1C(c1ccccc1)C=CC2c1ccccc1 (stereo not shown) [Compound No. 187]	16.4
CCCOC(=O)C12CC(C)=C(C)CN1N=C(CN)C2O (stereo not shown) [Compound No. 190]	28.7
CCCOC(=O)C12CC(C)=C(C)CN1N=C(C=C(C#N)C#N)C2O (stereo not shown) [Compound No. 193, 8-(2,2-Dicyanoethenyl)-3,4-dimethyl-7-hydroxy-6-propoxycarbonyl-1,9-diazabicyclo[4.3.0]nona-3,8-diene]	70.0
CCCOC(=O)C12CC(C)=C(C)CN1N=C(C=CC#N)C2O (stereo not shown) [Compound No. 196]	34.1
CCCOC(=O)C12CC(C)=C(C)CN1N=C(C=CC(=O)OCC)C2O (stereo not shown) [Compound No. 197]	14.2
CCCOC(=O)C12CC(C)=C(C)CN1N=C(C(O)C[N+](=O)[O-])C2O (stereo not shown) [Compound No. 199, 3,4-Dimethyl-7-hydroxy-8-(1-hydroxy-2-nitroethyl)-6-propoxycarbonyl-1,9-diazaicyclo[4.3.0]nona-3,8-diene]	124.7
COC(=O)C12C(O)C(CSC)=NN1C(c1ccccc1)C=CC2c1ccccc1 (stereo not shown) [Compound No. 203]	32.2
COC(=O)C12C(O)C(CS(C)(=O)=O)=NN1C(c1ccccc1)C=CC2c1ccccc1 (stereo not shown) [Compound No. 204]	32.1
COC(=O)C12C(O)C(C[S+](C)[O-])=NN1C(c1ccccc1)C=CC2c1ccccc1 (stereo not shown) [Compound No. 205, 2,5-Diphenyl-7-hydroxy-6-methoxycarbonyl-8-methylsulfinylmethyl-1,9-diazabicyclo[4.3.0]nona-3,8-diene]	64.7
COC(=O)C12C(O)C(COc3ccc(CC(=O)O)cc3)=NN1C(c1ccccc1)C=CC2c1ccccc1 (stereo not shown) [Compound No. 209, 8-[(p-Carboxymethyl)phenoxy]methyl-2,5-diphenyl-7-hydroxy-6-methoxycarbonyl-1,9-diazabicyclo[4.3.0]nona-3,8-diene]	51.1
